Assay results as given in paper PMC9911399, “Two distinct binding modes provide the RNA-binding protein RbFox with extraordinary sequence specificity”.
Substitutions are numbered along the chain they refer to; changes in the protein carry UniProt numbers. The list shows a part of the results.

T1: RBFOX1 RRM (Homo sapiens, UniProt Q9NWB1 109-208)
T1 sequence: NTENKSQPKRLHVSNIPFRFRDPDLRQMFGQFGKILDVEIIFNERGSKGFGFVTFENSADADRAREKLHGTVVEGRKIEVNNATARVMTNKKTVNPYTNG

B1: CUUCAAU (DNA:RNA)
RNA: GGGAGACCGGAAUUCAGAUUGUCCCUUCAAUUUAAAUCCCGUCGUAGCCACCA
DNA 1: CAATCTGAATTCCGGTCTCCC
DNA 2: TGGTGGCTACGACGGGATT
B2: GGGUAAU (DNA:RNA)
RNA: B1 RNA with C25G, U26G, U27G, C28U
DNA 1: CAATCTGAATTCCGGTCTCCC
DNA 2: TGGTGGCTACGACGGGATT
B3: GUCACUG (DNA:RNA)
RNA: B1 RNA with C25G, U27C, C28A, A29C, A30U, U31G
DNA 1: CAATCTGAATTCCGGTCTCCC
DNA 2: TGGTGGCTACGACGGGATT
B4: CCGUCCU (DNA:RNA)
RNA: B1 RNA with U26C, U27G, C28U, A29C, A30C
DNA 1: CAATCTGAATTCCGGTCTCCC
DNA 2: TGGTGGCTACGACGGGATT
B5: AGCCGCU (DNA:RNA)
RNA: B1 RNA with C25A, U26G, U27C, A29G, A30C
DNA 1: CAATCTGAATTCCGGTCTCCC
DNA 2: TGGTGGCTACGACGGGATT
B6: GAGUACG (DNA:RNA)
RNA: B1 RNA with C25G, U26A, U27G, C28U, A30C, U31G
DNA 1: CAATCTGAATTCCGGTCTCCC
DNA 2: TGGTGGCTACGACGGGATT
B7: GAAGCAC (DNA:RNA)
RNA: B1 RNA with C25G, U26A, U27A, C28G, A29C, U31C
DNA 1: CAATCTGAATTCCGGTCTCCC
DNA 2: TGGTGGCTACGACGGGATT
B8: CCCUCAA (DNA:RNA)
RNA: B1 RNA with U26C, U27C, C28U, A29C, U31A
DNA 1: CAATCTGAATTCCGGTCTCCC
DNA 2: TGGTGGCTACGACGGGATT
B9: CGUUUCU (DNA:RNA)
RNA: B1 RNA with U26G, C28U, A29U, A30C
DNA 1: CAATCTGAATTCCGGTCTCCC
DNA 2: TGGTGGCTACGACGGGATT
B10: AACUAGC (DNA:RNA)
RNA: B1 RNA with C25A, U26A, U27C, C28U, A30G, U31C
DNA 1: CAATCTGAATTCCGGTCTCCC
DNA 2: TGGTGGCTACGACGGGATT
B11: AAUGCGA (DNA:RNA)
RNA: B1 RNA with C25A, U26A, C28G, A29C, A30G, U31A
DNA 1: CAATCTGAATTCCGGTCTCCC
DNA 2: TGGTGGCTACGACGGGATT
B12: GGAACAC (DNA:RNA)
RNA: B1 RNA with C25G, U26G, U27A, C28A, A29C, U31C
DNA 1: CAATCTGAATTCCGGTCTCCC
DNA 2: TGGTGGCTACGACGGGATT
B13: AUCAAAG (DNA:RNA)
RNA: B1 RNA with C25A, U27C, C28A, U31G
DNA 1: CAATCTGAATTCCGGTCTCCC
DNA 2: TGGTGGCTACGACGGGATT
B14: UUUCAUG (DNA:RNA)
RNA: B1 RNA with C25U, A30U, U31G
DNA 1: CAATCTGAATTCCGGTCTCCC
DNA 2: TGGTGGCTACGACGGGATT
B15: GUCGUCU (DNA:RNA)
RNA: B1 RNA with C25G, U27C, C28G, A29U, A30C
DNA 1: CAATCTGAATTCCGGTCTCCC
DNA 2: TGGTGGCTACGACGGGATT
B16: ACCCUUC (DNA:RNA)
RNA: B1 RNA with C25A, U26C, U27C, A29U, A30U, U31C
DNA 1: CAATCTGAATTCCGGTCTCCC
DNA 2: TGGTGGCTACGACGGGATT
B17: GGCCGAG (DNA:RNA)
RNA: B1 RNA with C25G, U26G, U27C, A29G, U31G
DNA 1: CAATCTGAATTCCGGTCTCCC
DNA 2: TGGTGGCTACGACGGGATT
B18: ACUAAUA (DNA:RNA)
RNA: B1 RNA with C25A, U26C, C28A, A30U, U31A
DNA 1: CAATCTGAATTCCGGTCTCCC
DNA 2: TGGTGGCTACGACGGGATT
B19: GUUGGCU (DNA:RNA)
RNA: B1 RNA with C25G, C28G, A29G, A30C
DNA 1: CAATCTGAATTCCGGTCTCCC
DNA 2: TGGTGGCTACGACGGGATT
B20: GCGUGGG (DNA:RNA)
RNA: GGGAGACCGGAAUUCAGAUUGUCCGCGUGGGUUAAAUCCCGUCGUAGCCACCA
DNA 1: CAATCTGAATTCCGGTCTCCC
DNA 2: TGGTGGCTACGACGGGATT

What follows are binders tested against T1, RBFOX1 RRM (assay: EMSA; HiTS-Eq, 1 nM pool, 10 min; buffer printed only for the single-RNA assays: 10 mM Tris pH 7.5, 150 mM NaCl, 3.4 mM EDTA, 0.001% NP-40, 30 C). Conditions: tags: His6 N-terminal (pET28a); label: 5' 32P.
Method in brief: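 Purified RbFox RRM (wild type or mutant) was equilibrated for 10 min in 50 µL with 1 nM of a 5′-radiolabelled pool of RNA with 7 randomized nucleotides, its flanks annealed to DNA oligonucleotides, across increasing protein concentrations. Free RNA was separated by 8% native PAGE, excised, reverse-transcribed, PCR-barcoded and sequenced on an Illumina HiSeq 2500. Relative association constants came from read-count changes of each variant against the control reaction, normalised to the cognate motif.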

Row | Binder | binding signal
1 | B1 | 0.00338 KA relative to UGCAUGU
2 | B2 | 0.0136 KA relative to UGCAUGU
3 | B3 | 0.0171 KA relative to UGCAUGU
4 | B4 | 0.00583 KA relative to UGCAUGU
5 | B5 | 0.00308 KA relative to UGCAUGU
6 | B6 | 0.0132 KA relative to UGCAUGU
7 | B7 | 0.0112 KA relative to UGCAUGU
8 | B8 | 0.00605 KA relative to UGCAUGU
9 | B9 | 0.0116 KA relative to UGCAUGU
10 | B10 | 0.00452 KA relative to UGCAUGU
11 | B11 | 0.00943 KA relative to UGCAUGU
12 | B12 | 0.0079 KA relative to UGCAUGU
13 | B13 | 0.00193 KA relative to UGCAUGU
14 | B14 | 0.0161 KA relative to UGCAUGU
15 | B15 | 0.014 KA relative to UGCAUGU
16 | B16 | 0.000934 KA relative to UGCAUGU
17 | B17 | 0.0143 KA relative to UGCAUGU
18 | B18 | 0.00101 KA relative to UGCAUGU
19 | B19 | 0.0265 KA relative to UGCAUGU
20 | B20 | 0.0174 KA relative to UGCAUGU
